The supplement of paper PMC10126150
Values marked as one replicate rest on one cluster of the flow cell; about a third of the high ones do not repeat.

system: ATP; test: switch fluorescence ratio, 500 uM ATP over buffer (Cy3 cluster intensity, sum of 5 cycles each) (fold (ratio)); higher = stronger signal-on switching upon ATP binding; sequences stand for … in TCGTCGGCAGCGTCAGATGTGTATAAGAGACAGTTTTTTTTTTTTTTTTTTTTTTTTT…TC; conditions: aptamer strand: ATP DNA aptamer (quencher-CACCTGGGGGAGTATTGCGGAGGAAGG + anchor), 100 nM annealed; ATP concentration: 500 uM; one replicate
How it was run: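 The fluorescence ratio divides summed target-cycle Cy3 intensity by summed buffer-cycle Cy3 intensity for each cluster and is averaged per switch-domain sequence. Cy3-labelled switching-strand clusters on a modified Illumina MiSeq flow-cell were annealed to 100 nM quencher-labelled ATP aptamer, then imaged in selection buffer and again after 15 min with 500 uM ATP at 22 °C. Five such cycles were run, with NaOH stripping and re-annealing between them, and clusters outside 100-1000 RFU were excluded.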
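Also: ATP exposure 15 min at 22 °C before imaging.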

Row | Sequence | switch fluorescence ratio
1 | AAGCTCGATG | 1.02
2 | CGGTTATCTG | 1.04
3 | AGCACAACTT | 0.995
4 | AGTTGTGTGA | 0.993
5 | CCTTAAATTC | 1.44
6 | CTGGTACGTT | 0.98
7 | GCAATCGGCT | 0.92
8 | CATAGGATCA | 1.02
9 | ATCTATTTGC | 1
10 | ATGTTCTCTT | 0.98
11 | GGCGTGGCCT | 0.996
12 | ACACGCAGCT | 1.1
13 | AATTGCTGCG | 1.01
14 | TAACTGTTCT | 1.06
15 | TGGCCCACAG | 1.08
16 | CGTTGTTAGG | 0.99
17 | CGCCGCACA | 3.61
18 | CGCTAGAGGA | 1.06
19 | CCTGCATCCT | 1.41
20 | TGAGAAGATA | 0.969
21 | TTGCGGGTCC | 0.928
22 | AGTTGATTTC | 0.948
23 | GAGACAAGCG | 1.05
24 | TTACACCCAT | 1.16
25 | CGGGGGATAC | 1.69
26 | AGGATTTAAT | 0.966

Row | Sequence | switch fluorescence ratio
27 | TGGTTATTTA | 1.01
28 | TTATGTGCTT | 0.98
29 | CTCACATCGG | 0.958
30 | TCCAAAATAG | 1.67
31 | GTTCTAAGAG | 0.995
32 | AAAAATCGTC | 0.986
33 | TGAGGTAGCA | 1.04
34 | CCCTTCTA | 1.02
35 | TTTTCTGGAC | 1
36 | TTTTATTAGC | 0.981
37 | CGTGAGACCG | 1.05
38 | TATTAGTCCA | 1
39 | CAGCGTATA | 1.04
40 | TTTTAATAAG | 1
41 | CATCGATGGG | 1.01
42 | ATCGGCACAC | 2
43 | CGGATGGATA | 1
44 | GTGTCGATG | 0.999
45 | GGTTTGGCGC | 1.02
46 | TGCTAAAGAA | 0.972
47 | AGTCCTATGT | 1.04
48 | TCTGCATACG | 1.97
49 | CTAGACCGAG | 1.01
50 | CCCCAATATA | 1.47
51 | CGGACGCAGG | 1.97
52 | AGGGGAACCA | 0.988

Row | Sequence | switch fluorescence ratio
53 | AGGATGGCGG | 0.963
54 | TGTGGCCCGC | 0.982
55 | TGCAAGATAC | 4.11
56 | CTAAATTTTT | 1.03
57 | TAGCGTCCCC | 1.34
58 | ATTATGTGCG | 0.982
59 | TAACGGTCTC | 0.989
60 | ACTATTACAA | 1.13
61 | GGTTAGAC | 1.01
62 | GACAGAGTAC | 1.02
63 | CAGGGCTTGT | 1.01
64 | CTGTGTGCTA | 1.03
65 | AAACGGCGG | 0.988
66 | TGTGTATGAA | 1.01
67 | GATTCTGCAT | 1.08
68 | CCTATCGTA | 1.1
69 | ACGCATAACA | 1.51
70 | GGGTGATTAT | 1
71 | GATTTACCAA | 1.01
72 | CTAGGGCAGA | 1.04
73 | TTTAATTGA | 0.955
74 | CAGTCGAATG | 0.989
75 | TTAAAGGTGC | 1.21
76 | ATTATTAAAC | 1.02
77 | CCGGGTGCGG | 0.977
78 | GCTAGATAAG | 0.991

Row | Sequence | switch fluorescence ratio
79 | GAACTGTAAC | 1.11
80 | GCGAGGATTG | 1.01
81 | GACGTGGGG | 0.969
82 | CGGGGCTGTC | 0.924
83 | ATTCACTAAC | 1.15
84 | AAAATACCGA | 1.03
85 | CACGGGTTTC | 1.01
86 | GGTCAATTTC | 1.05
87 | TGTATGGGGC | 0.943
88 | ACTGTATAAT | 1.19
89 | TGATGTAGAC | 1.02
90 | CTCTGTGTAT | 1.13
91 | CAGCATAATC | 2.49
92 | CCTATCACTA | 1.05
93 | GATCGCATCG | 1.07
94 | GCATCATCTG | 0.972
95 | CAAGGAAGTA | 0.996
96 | TGCGGTATAT | 1.02
97 | CAGGGTAAGG | 0.981
98 | ATTTATGCGA | 1
99 | CAGGCACGTT | 0.976
100 | TTTACCCCTT | 1.34
101 | ATTTAGGGT | 1.01
102 | GCTCAAGGTT | 0.978
103 | GCCGGCGAAT | 0.972
104 | CGGGCTTGAG | 0.954

Row | Sequence | switch fluorescence ratio
105 | ATAGGTGGAT | 1.01
106 | CGAATTTCGA | 0.937
107 | TCGATTCCTG | 0.982
108 | GCTAACGTAG | 1.06
109 | TTCAACTGTG | 1.01
110 | GCTTAGCACG | 1.04
111 | CTGTGGGGG | 0.977
112 | TAGGCGAAGC | 1.01
113 | TTTGAGGGAG | 0.981
114 | GTCCTGGTCT | 1.06
115 | AGGCCGAACA | 1
116 | ATGTTATT | 0.962
117 | TTTTTCGTCC | 1.03
118 | GCCACGGACG | 1.25
119 | GAACGAATTA | 1.02
120 | GATTCGCGGG | 0.993
121 | TCGGTCTGCA | 1.02
122 | TTTAAGGTGT | 0.962
123 | CAACTTAGGG | 0.979
124 | AGTGAATAGG | 1.05
125 | GTTGGTGGG | 1.04
126 | GGGCCGACAC | 1.08
127 | GTGGGTTTAC | 1.02
128 | GTGTCCCCGG | 1.03
129 | GACGTCGAGA | 1.02
130 | TGGCGGCTAG | 1.02

Row | Sequence | switch fluorescence ratio
131 | CCTGCTTACA | 1.09
132 | TTAGAACTAG | 0.987
133 | ATTTAAGCCG | 1.07
134 | AATTGAATTT | 1.01
135 | CGGTGACTAC | 1
136 | AAGATTTGGC | 1.14
137 | ACGTTTACTT | 1.17
138 | TTTCGTTGAG | 0.977
139 | AATTCCGGGC | 1.07
140 | AGAGTCACTT | 0.992
141 | AAACAGTTCA | 1.01
142 | CAGAAAGTTC | 1.08
143 | CTAGGAGTAT | 0.998
144 | GCAGTTGAAG | 0.991
145 | GTGTCAAGGA | 0.978
146 | AGCCTGGTAT | 1
147 | CTCAGTCTAG | 1.01
148 | GTACCTCGGG | 0.976
149 | CAGAGATAAC | 1.03
150 | AAGAAAGGAG | 1.04
151 | CGTCCATCAA | 2.97
152 | ACTGTCGTAG | 1.03
153 | AGGTTATTAC | 1.05
